Source: patent publication US11178870B2 (priority 2017, dated 2021)

Columns and labels:
[1] = system: Phytophthora infestans; assay type: in vivo; conditions: for Test F control value: Late blight on tomato; for control value, Test F (late blight on tomato): Table 7, Test F
[2] = system: Magnaporthe grisea; assay type: in vivo; conditions: for Test A control value: Blast on rice; for control value, Test A (blast on rice): Table 7, Test A
[3] = system: Colletotrichum orbiculare; conditions: 250 ppm sprayed (2.5 ml/pot) before inoculation; assessed 6 to 10 days after inoculation

Row | SMILES | Test F control value [1] | Test A control value [2] | control value, Test H (anthracnose on cucumber) [3] | control value, Test F (late blight on tomato) [1] | control value, Test A (blast on rice) [2]
1 | CCn1c(-c2c(F)cc(OC)cc2F)c(-c2oc(Cl)nc2Cl)cc(Cl)c1=O [Compound 114] | L (L shows the control value of 50% or less) | H (H shows the control value more than 50%) | – | – | –
2 | CCc1ccccc1-c1c(-n2cc(C)cn2)cc(Br)c(=O)n1CC [Compound 321] | – | – | H (H shows the control value more than 50%) | L (L shows the control value of 50% or less) | L (L shows the control value of 50% or less)
3 | CCn1c(-c2ccc(F)cc2F)c(-n2ncc(C)c2Cl)cc(Cl)c1=O [Compound 182] | H (H shows the control value more than 50%) | H (H shows the control value more than 50%) | – | – | –
4 | CCn1c(-c2c(F)cc(F)cc2F)c(-n2c(C)ccc2C)cc(Cl)c1=O [Compound 125] | L (L shows the control value of 50% or less) | H (H shows the control value more than 50%) | – | – | –
5 | CCN1C(=O)CCC(n2cccn2)=C1c1c(F)cccc1F [Compound 30] | – | L (L shows the control value of 50% or less) | – | – | –
6 | CCn1c(-c2ccccc2Cl)c(-n2cnc(Cl)c2Cl)cc(Br)c1=O [Compound 210] | – | – | H (H shows the control value more than 50%) | L (L shows the control value of 50% or less) | L (L shows the control value of 50% or less)
7 | COc1ccc(-c2c(-n3cc(Cl)cn3)cc(Br)c(=O)n2CC(F)F)c(Br)c1 [Compound 288] | – | – | H (H shows the control value more than 50%) | L (L shows the control value of 50% or less) | H (H shows the control value more than 50%)
8 | CCn1c(-c2c(F)cc(F)cc2F)c(-n2c(Cl)ccc2Cl)cc(Cl)c1=O [Compound 133] | L (L shows the control value of 50% or less) | H (H shows the control value more than 50%) | – | – | –
9 | CCn1c(-c2c(F)cc(F)cc2F)c(-n2cc(I)cn2)cc(Cl)c1=O [Compound 160] | L (L shows the control value of 50% or less) | L (L shows the control value of 50% or less) | – | – | –
10 | CCn1c(-c2ccc(F)cc2C)c(-n2cc(Cl)cn2)cc(Cl)c1=O [Compound 170] | L (L shows the control value of 50% or less) | H (H shows the control value more than 50%) | – | – | –
11 | CCn1c(-c2c(F)cc(OC)cc2F)c(C2OCCCO2)cc(Cl)c1=O [Compound 10] | L (L shows the control value of 50% or less) | H (H shows the control value more than 50%) | – | – | –
12 | Cn1c(-c2c(F)cc(F)cc2F)c(-n2cc(Cl)cn2)cc(Cl)c1=O [Compound 175] | H (H shows the control value more than 50%) | H (H shows the control value more than 50%) | – | – | –
13 | CCn1c(-c2c(F)cc(F)cc2F)c(-n2cnc(Cl)c2Cl)cc(Br)c1=O [Compound 139] | L (L shows the control value of 50% or less) | H (H shows the control value more than 50%) | – | – | –
14 | CCn1c(-c2c(F)cccc2F)c(-n2ncc(C)c2Cl)ccc1=O [Compound 153] | L (L shows the control value of 50% or less) | H (H shows the control value more than 50%) | – | – | –
15 | Cc1cnn(-c2cc(Br)c(=O)n(CC(F)F)c2-c2ccc(F)cc2Cl)c1Cl [Compound 345] | – | – | H (H shows the control value more than 50%) | L (L shows the control value of 50% or less) | H (H shows the control value more than 50%)
16 | CCn1c(-c2c(F)cc(F)cc2F)c(-n2cc(Cl)cn2)ccc1=S [Compound 185] | – | – | L (L shows the control value of 50% or less) | L (L shows the control value of 50% or less) | L (L shows the control value of 50% or less)
17 | CCn1c(-c2ccccc2Cl)c(-n2cc(Cl)cn2)cc(Cl)c1=O [Compound 172] | L (L shows the control value of 50% or less) | H (H shows the control value more than 50%) | – | – | –
18 | CCn1c(-c2ccc(OC)cc2F)c(-n2cc(Cl)cn2)cc(Cl)c1=O [Compound 149] | L (L shows the control value of 50% or less) | H (H shows the control value more than 50%) | – | – | –
19 | CCn1c(-c2c(F)cc(F)cc2F)c(-n2cc(OC)cn2)cc(Cl)c1=O [Compound 128] | L (L shows the control value of 50% or less) | L (L shows the control value of 50% or less) | – | – | –
20 | CCn1c(-c2ccc(F)cc2Cl)c(-n2cc(F)cn2)cc(Br)c1=O [Compound 329] | – | – | H (H shows the control value more than 50%) | L (L shows the control value of 50% or less) | H (H shows the control value more than 50%)
